Read counts are not given, so values of variants with three or more changes are uncertain.
B1: CPEB3 Ribozyme (parent)
chain: UAACAGGGGGCCACAGCAGAAGCGUUCACGUCGCAGCCCCUGUCAGAUUCUGGUGAAUCUGCGAAUUCUGCUGUAUAUCUC

Variants of: B1
Test: self-cleavage, relative activity (ratio to wild type); higher = more cleavage; in vitro, sequencing
Outline: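 Libraries of CPEB3 self-cleaving ribozyme mutants came from rounds of error-prone PCR and carried barcodes, which DNA sequencing matched to variants. In vitro transcription used T7 RNA polymerase at 37°C for 5 hours, with a further 15 min in DNase I before EDTA stopped the reaction; the ribozymes cleaved during both steps. The RNA was reverse transcribed with template switching and sequenced on Illumina. Relative activity is the cleaved/total read fraction of a variant divided by that of the unmutated ribozyme, averaged over three batches with at least 5 reads.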

Variant	self-cleavage
A20U A64G U67G U72A	0.17
A20U A64G U69A	0.11
A20U A65C U72A U80C	0.12
A20U A65C U74C	0.15
A20U A65G U66C	0.13
A20U A65G U67C U74C	0.17
A20U A65G U69C U76C	0.14
A20U A65G U72C	0.15
A20U C23A U58C	0.29
A20U C23U U26C U60C	0.18
A20U C23U U48C U54C	0.09
A20U C27A U43C A56G	0.06
A20U C29A U31A	0.19
A20U C29U U31C	0.17
A20U C29U U66A	0.17
A20U C32A U43A A64U	0.07
A20U C32U A35U U41C U49C A56U	0.05
A20U C32U U41C	0.22
A20U C34A U41C A65G A75G	0.11
A20U C34U U41A U49C U54C	0.06
A20U C34U U51A U69C	0.05
A20U C37U A45G U51A U54A U69G	0.07
A20U C37U C40G A47U	0.17
A20U C38A C62U U80A	0.17

Variant	self-cleavage
A20U C38G U60A U78A	0.1
A20U C38U A45G U76C	0.24
A20U C39A U72A U74C	0.27
A20U C39G A47G A65U	0.07
A20U C40A A57G	0.13
A20U C40A A57G U60C G70A	0.08
A20U C40A G63A U72A	0
A20U C40G U80C	0.14
A20U C40U A64G U76C	0.1
A20U C50A U54A	0.29
A20U C62U C68U C81A	0.07
A20U G22A U25C U72A	0.08
A20U G22C U25A C40U A64G A77G	0.06
A20U G22U U78C	0.13
A20U G24A A28G U49C U51A	0.08
A20U G24A A35G A47G C79A	0.24
A20U G24A A35U	0.16
A20U G24A U48A C71G	0.09
A20U G24A U80C	0.08
A20U G24C U43A U48A A56G	0.15
A20U G30C U43C U72G	0.24
A20U G33A U58C U67C	0.09
A20U G42U U49A U51A G73U U80A	0.2
A20U G46A A64U	0.16

Variant	self-cleavage
A20U G52C U76A	0.27
A20U G53A C59U G63U	0.1
A20U G73A U74A	0.63
A20U U25A A28G U41A U69A	0.05
A20U U25A U26C C37U U41C	0.16
A20U U25A U72C G73A U80A	0.06
A20U U25A U80C	0.66
A20U U25C A45G U51A	0.17
A20U U25C A56G G73A	0.28
A20U U25C C32A A45U U51A U69C	0.06
A20U U25C U26A U69A	0.15
A20U U25C U41C A64U U72A	0.1
A20U U25C U43C A45G C50U A64G U67A	0.08
A20U U25C U78C	0.17
A20U U25C U80A	0.21
A20U U25G U78C U80C	0.04
A20U U26A C39U U41C C44U A56G	0.09
A20U U26A C40A U67C U78C	0.06
A20U U26A U41G A57G	0.07
A20U U26C A28G U51C U69C U72C	0.08
A20U U26C A28G U58C A64G A75G	0.03
A20U U26C A28U C37U U43C U69C	0.07
A20U U26C A35G C37U U43C	0.63
A20U U26C A35G C37U U43C U54C U67C	0.2

Variant	self-cleavage
A20U U26C A45U	0.35
A20U U26C A45U G53C A77G	0.09
A20U U26C A64G	0.42
A20U U26C C32U U78C	0.1
A20U U26C C37U	0.2
A20U U26C C38G U51C A64U	0.07
A20U U26C C81A	0.19
A20U U26C G33U U54C A64U	0.23
A20U U26C U76C	0.06
A20U U26C U80G	0.09
A20U U26G U48C	0.19
A20U U31A A35G A77G	0.61
A20U U31A A35U A45G	0.14
A20U U31A U54G U67C	0.11
A20U U31A U76C	0.67
A20U U31A U78G	0.12
A20U U31C A35U A64G	0.14
A20U U31C A57G U66C	0.11
A20U U31C C32U U43A U69C C79A	0.06
A20U U31C G42A U51C	0.11
A20U U31C G73A	0.33
A20U U31C U72C	0.25
A20U U31G A64G U74C	0.09
A20U U31G U49A U66C	0.1

Variant	self-cleavage
A20U U41A A56U U66A	0.17
A20U U41A C44A C71U U78A	0.09
A20U U41A U51A C68U U72G	0.03
A20U U41A U58A	0.15
A20U U41A U67C	0.3
A20U U41C A47U U58C C59A	0.1
A20U U41C A64C	0.14
A20U U41C A64U U72C	0.14
A20U U41C U48C A56U	0.07
A20U U41C U51A	0.2
A20U U41C U51A G52U A65G U69A U72C	0.13
A20U U41C U51A G52U C62U U69A	0.13
A20U U41C U60C U69A U72C	0.2
A20U U41C U66C	0.34
A20U U41C U80A	0.52
A20U U41G A56G	0.07
A20U U41G U51A U74C	0.08
A20U U43C A45G	0.45
A20U U43C A45G U69C	0.07
A20U U43C A47G	0.28
A20U U43C A47G A77G	0.12
A20U U43C A56G	0.17
A20U U43C U48C U69A U72C	0.09
A20U U43C U49C U80C	0.16

Variant	self-cleavage
A20U U43C U54A A64G A65G U78C	0.1
A20U U43C U58A U74C	0.11
A20U U43C U66C	0.07
A20U U43G U51A U72G U76C U80C	0.29
A20U U43G U69C	0.14
A20U U48C A64G	0.22
A20U U48C A64G U78C	0.07
A20U U48C U49C U60A U80C	0.28
A20U U48C U69C	0.07
A20U U48C U74G	0.33
A20U U48C U76C U78C	0.21
A20U U49A U80C	0.44
A20U U49C U51A	0.35
A20U U49C U51A U78A	0.1
A20U U49C U54C	0.16
A20U U51A A56U	0.44
A20U U51A A57C G73A	0.32
A20U U51A A77G U80C	0.26
A20U U51A U66C U80A	0.14
A20U U51A U72A	0.17
A20U U51C U58C U60A	0.13
A20U U54A A57U U60A G63A	0.15
A20U U54A U80C	0.42
A20U U54G A57G A65G	0.06

Variant	self-cleavage
A20U U54G A64G U78C	0.07
A20U U58G A64G U78C	0.19
A20U U60C U80A	0.1
A20U U72A U78C	0.43
A20U U72A U80A	0.14
A20U U74C A75U	0.51
A21C A35C A45U U69A	0.2
A21C A35U U43C A64G	0.14
A21C A45G A57G C71A	0.07
A21C A45G A64G U66C C68A	0.05
A21C A45U U69C	0.46
A21C A47G A65U	0.06
A21C A47G U78C	0.35
A21C A47U U51G U66A	0.16
A21C C34A U41C U78C	0.05
A21C C37U U48C	0.14
A21C C40A U51A	0.18
A21C G63C U69C U80C	0.13
A21C U26C U74A	0.32
A21C U41C U43A A65G U78A	0.14
A21C U41C U69C	0.21
A21C U41C U80C	0.22
A21C U43C U69C	0.1

Reference: the RNAGym collection of RNA variant scans (doi:10.1093/nar/gkz1192)
